Data published in the supplement of paper PMC8728848.
This is one part of the list.

Legend:
Test in all cases: glycan array binding signal (z-score within array); higher = stronger binding
Settings in all cases: glycan notation: IUPAC condensed, linker removed; mutation: H84T
Gal(a1-3)Gal = biological target: Gal(a1-3)Gal
How it was run: (§1)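 From the Consortium for Functional Glycomics database, 3228 arrays were curated, keeping only those whose protein sequence was available. Binding is given as a within-array Z-score averaged across arrays sharing a protein sequence and across linkers. Negative Z-scores can be read as non-binding.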

Gal(a1-3)Gal(b1-3)GlcNAc = biological target: Gal(a1-3)Gal(b1-3)GlcNAc
How it was run: as §1

[1] = biological target: Gal(a1-3)Gal(b1-3)GlcNAc(b1-2)Man
How it was run: as §1

[2] = biological target: Gal(a1-3)Gal(b1-3)GlcNAc(b1-2)Man(a1-3)[Gal(a1-3)Gal(b1-3)GlcNAc(b1-2)Man(a1-6)]Man(b1-4)GlcNAc(b1-4)GlcNAc
How it was run: as §1

[3] = biological target: Gal(a1-3)Gal(b1-3)GlcNAc(b1-3)GalNAc
How it was run: as §1

[4] = biological target: Gal(a1-3)Gal(b1-3)GlcNAc(b1-6)GalNAc
How it was run: as §1

[5] = biological target: Gal(a1-3)Gal(b1-3)[Fuc(a1-4)]GlcNAc(b1-2)Man(a1-3)[Gal(a1-3)Gal(b1-3)[Fuc(a1-4)]GlcNAc(b1-2)Man(a1-6)]Man(b1-4)GlcNAc(b1-4)GlcNAc
How it was run: as §1

Gal(a1-3)Gal(b1-4)Glc = biological target: Gal(a1-3)Gal(b1-4)Glc
How it was run: as §1

Gal(a1-3)Gal(b1-4)GlcNAc = biological target: Gal(a1-3)Gal(b1-4)GlcNAc
How it was run: as §1

[6] = biological target: Gal(a1-3)Gal(b1-4)GlcNAc(b1-2)Man
How it was run: as §1

[7] = biological target: Gal(a1-3)Gal(b1-4)GlcNAc(b1-2)Man(a1-3)[Gal(a1-3)Gal(b1-4)GlcNAc(b1-2)Man(a1-6)]Man(b1-4)GlcNAc(b1-4)GlcNAc
How it was run: as §1

[8] = biological target: Gal(a1-3)Gal(b1-4)GlcNAc(b1-3)GalNAc
How it was run: as §1

[9] = biological target: Gal(a1-3)Gal(b1-4)GlcNAc(b1-6)GalNAc
How it was run: as §1

[10] = biological target: Gal(a1-3)Gal(b1-4)[Fuc(a1-3)]GlcNAc
How it was run: as §1

[11] = biological target: Gal(a1-3)Gal(b1-4)[Fuc(a1-3)]GlcNAc(b1-2)Man(a1-3)[Gal(a1-3)Gal(b1-4)[Fuc(a1-3)]GlcNAc(b1-2)Man(a1-6)]Man(b1-4)GlcNAc(b1-4)GlcNAc
How it was run: as §1

Gal(a1-3)GalNAc = biological target: Gal(a1-3)GalNAc
How it was run: as §1

[12] = biological target: Gal(a1-3)[Gal(a1-4)]Gal(b1-4)GlcNAc
How it was run: as §1

[13] = biological target: Gal(a1-4)Gal(b1-3)GlcNAc(b1-2)Man(a1-3)[Gal(a1-4)Gal(b1-3)GlcNAc(b1-2)Man(a1-6)]Man(b1-4)GlcNAc(b1-4)GlcNAc
How it was run: as §1

Gal(a1-4)Gal(b1-4)Glc = biological target: Gal(a1-4)Gal(b1-4)Glc
How it was run: as §1

Gal(a1-4)Gal(b1-4)GlcNAc = biological target: Gal(a1-4)Gal(b1-4)GlcNAc
How it was run: as §1

[14] = biological target: Gal(a1-4)Gal(b1-4)GlcNAc(b1-2)Man(a1-3)[Gal(a1-4)Gal(b1-4)GlcNAc(b1-2)Man(a1-6)]Man(b1-4)GlcNAc(b1-4)GlcNAc
How it was run: as §1

[15] = biological target: Gal(a1-4)Gal(b1-4)GlcNAc(b1-3)Gal(b1-4)Glc
How it was run: as §1

Gal(a1-4)GlcNAc = biological target: Gal(a1-4)GlcNAc
How it was run: as §1

Gal(a1-6)Glc = biological target: Gal(a1-6)Glc
How it was run: as §1

Gal(b1-2)Gal = biological target: Gal(b1-2)Gal
How it was run: as §1

Gal(b1-3)Gal = biological target: Gal(b1-3)Gal
How it was run: as §1

Gal(b1-3)Gal(b1-4)GlcNAc = biological target: Gal(b1-3)Gal(b1-4)GlcNAc
How it was run: as §1

Gal(b1-3)GalNAc = biological target: Gal(b1-3)GalNAc
How it was run: as §1

[16] = biological target: Gal(b1-3)GalNAc(a1-3)[Fuc(a1-2)]Gal(b1-4)Glc
How it was run: as §1

[17] = biological target: Gal(b1-3)GalNAc(a1-3)[Fuc(a1-2)]Gal(b1-4)GlcNAc
How it was run: as §1

Gal(b1-3)GalNAc(b1-3)Gal = biological target: Gal(b1-3)GalNAc(b1-3)Gal
How it was run: as §1

[18] = biological target: Gal(b1-3)GalNAc(b1-3)Gal(a1-4)Gal(b1-4)Glc
How it was run: as §1

[19] = biological target: Gal(b1-3)GalNAc(b1-4)Gal(b1-4)Glc
How it was run: as §1

[20] = biological target: Gal(b1-3)GalNAc(b1-4)[Neu5Ac(a2-3)]Gal(b1-4)Glc
How it was run: as §1

Gal(b1-3)GlcNAc = biological target: Gal(b1-3)GlcNAc
How it was run: as §1

[21] = biological target: Gal(b1-3)GlcNAc(a1-3)Gal(b1-4)GlcNAc
How it was run: as §1

[22] = biological target: Gal(b1-3)GlcNAc(a1-6)Gal(b1-4)GlcNAc
How it was run: as §1

Gal(b1-3)GlcNAc(b1-2)Man = biological target: Gal(b1-3)GlcNAc(b1-2)Man
How it was run: as §1

B1: Banana lectin (Musa acuminata) (protein)
chain: MNGAIKVGAWGGNGGSAFDMGPAYRIISVKIFSGDVVDGVDVTFTYYGKTETRHYGGSGGTPHEIVLQEGEYLVGMAGEVANYTGAVVLGKLGFSTNKKAYGPFGNTGGTPFSLPIAAGKISGFFGRGGKFLDAIGVYLEPLEHHHHHH
glycan array binding signal (z-score) (Gal(a1-3)Gal): -0.173
glycan array binding signal (z-score) (Gal(a1-3)Gal(b1-3)GlcNAc): -0.178
glycan array binding signal (z-score) [1]: -0.173
glycan array binding signal (z-score) [2]: -0.165
glycan array binding signal (z-score) [3]: -0.184
glycan array binding signal (z-score) [4]: -0.136
glycan array binding signal (z-score) [5]: 0.562
glycan array binding signal (z-score) (Gal(a1-3)Gal(b1-4)Glc): -0.193
glycan array binding signal (z-score) (Gal(a1-3)Gal(b1-4)GlcNAc): -0.199
glycan array binding signal (z-score) [6]: -0.181
glycan array binding signal (z-score) [7]: -0.171
glycan array binding signal (z-score) [8]: -0.183
glycan array binding signal (z-score) [9]: -0.173
glycan array binding signal (z-score) [10]: -0.185
glycan array binding signal (z-score) [11]: -0.095
glycan array binding signal (z-score) (Gal(a1-3)GalNAc): -0.171
glycan array binding signal (z-score) [12]: -0.181
glycan array binding signal (z-score) [13]: 0.301
glycan array binding signal (z-score) (Gal(a1-4)Gal(b1-4)Glc): -0.178
glycan array binding signal (z-score) (Gal(a1-4)Gal(b1-4)GlcNAc): -0.178
glycan array binding signal (z-score) [14]: -0.13
glycan array binding signal (z-score) [15]: -0.179
glycan array binding signal (z-score) (Gal(a1-4)GlcNAc): -0.156
glycan array binding signal (z-score) (Gal(a1-6)Glc): -0.199
glycan array binding signal (z-score) (Gal(b1-2)Gal): -0.197
glycan array binding signal (z-score) (Gal(b1-3)Gal): -0.164
glycan array binding signal (z-score) (Gal(b1-3)Gal(b1-4)GlcNAc): -0.17
glycan array binding signal (z-score) (Gal(b1-3)GalNAc): -0.188
glycan array binding signal (z-score) [16]: -0.19
glycan array binding signal (z-score) [17]: -0.213
glycan array binding signal (z-score) (Gal(b1-3)GalNAc(b1-3)Gal): -0.166
glycan array binding signal (z-score) [18]: -0.164
glycan array binding signal (z-score) [19]: -0.163
glycan array binding signal (z-score) [20]: -0.147
glycan array binding signal (z-score) (Gal(b1-3)GlcNAc): -0.182
glycan array binding signal (z-score) [21]: 1.72
glycan array binding signal (z-score) [22]: -0.108
glycan array binding signal (z-score) (Gal(b1-3)GlcNAc(b1-2)Man): -0.15
